# Test results published in the supplement of paper PMC11417369.
# ± gives the standard deviation of the averaged measurements. This is one part of the list.
# Test system: PfAP2-EXP AP2 domain (GST-tagged)
# Assay: gcPBM binding intensity (ln(normalized median fluorescence intensity)); higher = stronger DNA binding
# Outline: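 GST-tagged P. falciparum DNA-binding domains, expressed in E. coli (about 25 μg on average), were applied for 1 h to an Agilent 4 × 180k array of primer-extended double-stranded 36-bp intergenic genomic probes plus negative controls. The binding buffer was 1× PBS with 1% milk, 0.2 mg/ml BSA, 0.5% salmon testes DNA and 0.03% Triton X-100. Bound protein was detected with Alexa488 anti-GST antibody and scanned at 488 nm. Binding intensity is the highest Masliner-normalised natural-log median intensity across replicate spots of either probe orientation.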
row,Sequence,gcPBM binding intensity (ln)
1,ATTTTTTTTTTTTTTTTTTTTTTTTTTTGATTTGTG [CACACA_negctrl_site1391],7.84 ± 0.53
2,AAAAATAGGAACCAATATCCAACGTGACTTTATAAT [CACACA_negctrl_site1011],8.6 ± 0.48
3,AAAATAATTATGAATTGTACAGGTTTTTTTTTTTTT [XGTACX_site220],8.36 ± 0.33
4,GGAAAAAAAAAAAAAAAACACACGGTACATTCAAAC [CACACA_site2715],8.79 ± 0.65
5,AAAAAATTTTTAAGCACACACATAGATAATATATAT [CACACA_site1555],8.93 ± 0.37
6,ATATATTTTCAAAAAAGTAAATCAAAATAAATATAT [TGCATGCA_negctrl_site319],8.62 ± 0.25
7,TCCAAATACAACTACACACAAACAAAAATTATATAT [CACACA_site881],8.67 ± 0.57
8,TATAAAAATATATTTACACACTATATATATCGAAAG [CACACA_site1700],8.52 ± 0.38
9,ATGGTTTAGTTATATACACACTCGAAAATAACGACA [CACACA_site7520],8.6 ± 0.49
10,AAATAAAATTTTATGTGTACGCAAAAAGTTGTAAGC [XGTACX_site8911],9.13 ± 0.35
11,TTAAAATTAATTCACCAGTATTAAAATAAAAACGAA [CACACA_negctrl_site1428],8.73 ± 0.42
12,TTTTTTTTAAGAGATAGTACATAAATATTATAATAT [XGTACX_site4685],8.47 ± 0.4
13,AAAATTTTTCTTAAAGCATGCACAATTAAGAAGACG [TGCATGCA_site883],9.54 ± 0.55
14,ATATTAATATATATGTTTTATTACCATTTTATGTAT [CACACA_negctrl_site1761],8.6 ± 0.48
15,AAGATATATATAGAAAGTACTTATATTTGTATAATT [XGTACX_site8855],8.62 ± 0.24
16,TACAATCTAAAATACACACACACAAACATATATTTA [CACACA_site3702],8.52 ± 0.48
17,TGAAAAAATATAAAATATAAAATAAAAAATATAAAA [GTGCAC_negctrl_site536],8.38 ± 0.41
18,AATAAATAAATATATACACACATATATATATAATAT [CACACA_site921],8.29 ± 0.21
19,TTAAAAATATATATAACACACACATAATATATATAT [CACACA_site8811],9.4 ± 0.13

row,Sequence,gcPBM binding intensity (ln)
1,TATTTTTATTTAGGACGTACAAAAATAAATCATATT [XGTACX_site1448],8.57 ± 0.2
2,TTTTTTTTTCCCGTAAATATTGAGACAACCATAATG [CACACA_negctrl_site41],8.39 ± 0.4
3,TTAGAAACATTGAAAGCATGCAATATTACTTTATAC [TGCATGCA_site522],9.13 ± 0.33
4,TCCTTATATTTGCACACACACACAAGAAAATGAAAA [CACACA_site6613],8.85 ± 0.27
5,TATAAATATTACGGTAGTACTATACATATATATAAT [XGTACX_site7442],8.6 ± 0.23
6,CATATAAAAAGACACACACACACATATATATATATA [CACACA_site940],10.3 ± 0.18
7,TATATATTCAAATGTGCATGTAAAAAAAAAAAAAAG [TGCATGCA_site126],9.03 ± 0.18
8,TAACCATACATACATACACACACACCCACATATATA [CACACA_site8951],8.8 ± 0.78
9,ATAAAAAACTCAGAGCGTACATAATTTTTTCTATTT [XGTACX_site2803],8.44 ± 0.4
10,TCCCTAGTATACCTTAGTACATATATTATTTTGCAC [XGTACX_site2174],8.98 ± 0.11
11,AGACATTAATGAAGGTGTACATATATTTGACAGAAT [XGTACX_site655],9 ± 0.47
12,GGCATATATATATGCACACATACATAAATACATGTG [CACACA_site5999],8.805 ± 0.035
13,CAGGAGAGTAAAAGAGTGCGAATTATTATTTTGGAG,8.76 ± 0.36
14,TCATTCATATGTTACACACACACACGCACATAAAAA [CACACA_site7514],8.85 ± 0.45
15,TATATAATATAATTGACATGCAACCATTTTCGTGAA [TGCATGCA_site458],9 ± 0.2
16,AAGTTGGAAAGGTTATGTACTTATTTTTTAAAATAA [XGTACX_site204],8.27 ± 0.45
17,TGTTTAAAGGAAAAGGAGTAGTCTATTATATTATCT [CACACA_negctrl_site858],8.38 ± 0.23
18,GATTTACAACACGAACGTACAGAACAAAAAGGAAAA [XGTACX_site6501],8.96 ± 0.49
19,ATCTATATCTATAATACACACTAAAGTAACAGAATA [CACACA_site7370],8.72 ± 0.42

row,Sequence,gcPBM binding intensity (ln)
1,GTATCTCATTATTCGTGTACTAAACACATAAAAATA [XGTACX_site2262],8.74 ± 0.2
2,TATAAAAATAAAAAAAGTACACATAAAAATATATAT [XGTACX_site5189],8.77 ± 0.33
3,AATGTAAAAGTAAACACACACATATATATATACATA [CACACA_site2484],8.75 ± 0.49
4,CATATATACACATACACACACACACGGACACGCACA [CACACA_site6910],8.87 ± 0.53
5,TATTGTATTTAATAAACACACAATATTAAAAATATA [CACACA_site4725],8.16 ± 0.3
6,ATACACATATATGTGTGTACTCACCTTTTAATATGA [XGTACX_site4349],8.46 ± 0.29
7,GGAATACAGGAAAAAAGTACAGAAAATGGAATATTA [XGTACX_site5053],8.97 ± 0.45
8,TCTTTCTTATATTTATATAATTATATTTATTTTATA [GTGCAC_negctrl_site300],8.74 ± 0.38
9,TTTAATTTGTTATACACACACAAAAAAAGTTATAAA [CACACA_site7779],8.45 ± 0.42
10,ATATAATGTTATAGAAGTACATGAAATACTTATTTA [XGTACX_site8850],8.16 ± 0.25
11,AACAATATATTGAATAGTACATATATATAAACATAT [XGTACX_site2811],8.6 ± 0.37
12,AAAATAAAATAACGTTGTACAACATCATTTCTATAT [XGTACX_site5080],8.45 ± 0.37
13,AACATTTATAAATATTGTACATATAGATTTATATAT [XGTACX_site2662],8.34 ± 0.34
14,TATATATATATATACACACACACCCTAAAAATATAT [CACACA_site1611],10 ± 0.45
15,AAAATTACTATATGAACACACATGATTAGATATATG [CACACA_site3083],8.46 ± 0.38
16,TGAAAGAATTAATTTTGTACATATAAAAATTTTATT [XGTACX_site8500],8.26 ± 0.41
17,TTTTTATTTTTAAAGGCACACACATTTTTATTTTTA [CACACA_site8624],8.41 ± 0.31
18,TATTTGTGCCAAAAATGAAAAAGTTTGTATAAAACC [CACACA_negctrl_site1406],8.65 ± 0.3
